The record followed here is the supplement of paper PMC10338343.

± gives the standard deviation. In all, about 6,600 sequences were measured (“pre-steady-state target cleavage rate”: median about 0.07, highest 2% from about 0.72 on). The list shows a part of the results, in another mix than the full data. Bounds are passed on as bounds.

The subject of the experiment is MIWI (PIWIL1) piRISC loaded with Kctd7 piRNA (30 nt). As to the kind of experiment: pre-steady-state target cleavage rate (min^-1); MIWI and MILI are mouse PIWI proteins and EfPiwi is from a freshwater sponge; tags in brackets are library labels; higher = faster piRNA-guided slicing of the target. The settings on record: guide: Kctd7 piRNA 5'p-UGUUAAUCUCUCAGAGAAGGUGACAGUGAU; auxiliary factor: 500 nM mouse GTSF1. A digest of the protocol: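 The pre-steady-state cleavage rate came from a burst-and-steady-state fit to pooled data from three Cleave-'n-Seq trials, in which uncleaved targets were sequenced and normalised to depth and to weakly complementary targets. Each reaction held 0.1 nM transcribed, DNA-blocked target RNA library and 1 nM active affinity-purified piRISC carrying one synthetic guide, with or without 500 nM GTSF1 partner protein, in HEPES–potassium acetate buffer at 33 °C for 0–8 or 0–960 min. k3 was capped at 0.0001 min^-1.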
UAGUGACAGACCCUCUCUGAGAGAUUAACA: the “pre-steady-state target cleavage rate” value turned out to be 0.0244 ± 0.006.

On to UAGUGACUCACUCUUCUCUGAGAGAUUAACA, for which the “pre-steady-state target cleavage rate” value came to 0.137 ± 0.012.

Consider UAGUGACAGUGGAAGACUGAGAGUAUAACA, for which the “pre-steady-state target cleavage rate” value was less than 0.0001.

On to UAGUCUCUCACCUUCUCUGACAGAUUAACA, for which the “pre-steady-state target cleavage rate” value turned out to be 0.418 ± 0.024.

For UAGUGAGUCAGCUUCUCUGAGAGAUUAACA, the “pre-steady-state target cleavage rate” value was determined as 0.6 ± 0.036.

With AUCACAGUCACCUUCUCUGUGAGAUUAACA, the “pre-steady-state target cleavage rate” value amounted to 0.197 ± 0.025.

With UACACUGUCACCUUCUCUCAGAGAAUAACA, the “pre-steady-state target cleavage rate” value was determined as 0.0449 ± 0.0095.

With UUGACAGUCACCUUCUCUGAGAGAUUAACA, the “pre-steady-state target cleavage rate” value is 0.715 ± 0.032.

As to UAGUGACACAGCUUCUCUGAGAGAUUAACA, the “pre-steady-state target cleavage rate” value amounted to 0.186 ± 0.017.

As to UACACUCUCACCUUCUCUGAGAGAUUAUCA, the “pre-steady-state target cleavage rate” value stood at 0.13 ± 0.03.

For the sequence AUCACUGUCUCCUUCUCUGAGACAUUAACA, the “pre-steady-state target cleavage rate” value amounted to 0.0796 ± 0.013.

Take UAGUGACUCACCUUCUCAGAGAGAUUAUCA: the “pre-steady-state target cleavage rate” value amounted to 0.0393 ± 0.0058.

UACACUGACACCUUCUCUGAGAGAUUAUCA: the “pre-steady-state target cleavage rate” value came out at 0.167 ± 0.032.

Consider UACACUGUCACCAAGUCUGAGAGAUUUUGA, for which the “pre-steady-state target cleavage rate” value was determined as 0.017 ± 0.0098.

In the case of “UAGUGACAGUGGAAGUCUGAGUCUAAUUGA [g10:g15:cont:t1A]”, the “pre-steady-state target cleavage rate” value came to 0.0281 ± 0.023.

In the case of UAGUGACAGUCCUUCUCUGAGAGAUUAACCA, the “pre-steady-state target cleavage rate” value turned out to be 0.0521 ± 0.0071.

In the case of UUCACACUCACCUUCUCUGAGAGAUUAACA, the “pre-steady-state target cleavage rate” value came out at 0.635 ± 0.045.

With UAGUGACAGUGGAAGAGUGAGAGUAUUAACA, the “pre-steady-state target cleavage rate” value is less than 0.0001.

Take UACACUGUCAGCUUCUCUGAGAGAUUAUGA: the “pre-steady-state target cleavage rate” value worked out at 0.0289 ± 0.009.

Regarding UAGUCUGACACCUUCUCAGAGAGAUUAACA, the “pre-steady-state target cleavage rate” value is 0.176 ± 0.016.

For UAGUGACACACCUACUCUGAGAGUUUAACA, the “pre-steady-state target cleavage rate” value was 0.049 ± 0.0098.

Take UAGUGACUCACCUUCUCUGAGAGAUUUUCA: the “pre-steady-state target cleavage rate” value came to 0.104 ± 0.016.

As for AUGACUGUCACCUUCUGUGAGAGAUUAACA, the “pre-steady-state target cleavage rate” value turned out to be 0.565 ± 0.024.

UAGUGAGUCACCAUCUCUGAGAGUUUAACA: the “pre-steady-state target cleavage rate” value is 0.152 ± 0.027.

Take UAGUCAGUGACCUUCUCUGAGAGAUUAACA: the “pre-steady-state target cleavage rate” value stood at 0.616 ± 0.033.

Take UAGUGACAGUCCUACUCUGAGAGAAUAACA: the “pre-steady-state target cleavage rate” value is less than 0.0001.

On to UUCACUCUCACCUUCUCUGAGAGAUUAUGA, for which the “pre-steady-state target cleavage rate” value turned out to be 0.0483 ± 0.011.

Take UAGUGAGUCACCUUCUCUGGAGAUUAACA: the “pre-steady-state target cleavage rate” value turned out to be 0.196 ± 0.018.

For the sequence UAGUGACACACCAUCUCUGAGAGAAUAACA, the “pre-steady-state target cleavage rate” value was 0.0218 ± 0.0057.

In the case of AUCACUCUCAGCUUCUCUGAGAGAUUAACA, the “pre-steady-state target cleavage rate” value stood at 0.142 ± 0.016.

As for UAGUGUGUCAGCUUCUCUGAGAGAUUUACA, the “pre-steady-state target cleavage rate” value came to 0.211 ± 0.026.

As to UAGUGUGUCACGUUCUGUGAGAGAUUAACA, the “pre-steady-state target cleavage rate” value was 0.478 ± 0.033.

Consider UAGACUGUCACCUUCUCUGAGAGGUUAACA, for which the “pre-steady-state target cleavage rate” value was 0.439 ± 0.039.

Regarding UAGACUGUCACCUUCUCUCAGAGAUUAACA, the “pre-steady-state target cleavage rate” value is 0.154 ± 0.016.

As to AUCACUGUCACCUUCUCUGAGAGUAAUUGA, the “pre-steady-state target cleavage rate” value was 0.143 ± 0.042.

UAGUGACUCUCCUUCUCUGAGAGAUAAACA: the “pre-steady-state target cleavage rate” value is 0.0234 ± 0.0037.

In the case of UAGUGACUCACCUUCUCUGAUAGAUUAACA, the “pre-steady-state target cleavage rate” value was determined as 0.778 ± 0.035.

Turning to AUCACUGUCACCUUCUCUGAGACGAUUAACA, the “pre-steady-state target cleavage rate” value stood at 0.0442 ± 0.009.

On to UACACUGUCACCUUUUCUGAGAGAUUAACA, for which the “pre-steady-state target cleavage rate” value was 0.681 ± 0.049.

On to UAGUGACAGUCCUUCUCUGGGAGAUUAACA, for which the “pre-steady-state target cleavage rate” value stood at 0.0168 ± 0.0033.

Consider UAGUGACAGACCUUCACUGAGAGAUUAUCA, for which the “pre-steady-state target cleavage rate” value amounted to 0.0258 ± 0.0082.

On to UAGUGACACACCAUCUGUGAGAGAUUAACA, for which the “pre-steady-state target cleavage rate” value is 0.0561 ± 0.0097.

Regarding UAGUGAGUCACCUUCUGUGUGAGAUUAACA, the “pre-steady-state target cleavage rate” value was determined as 0.0768 ± 0.0083.

UAGUCAGUCACCUUCUCUGACAGAUUAACA: the “pre-steady-state target cleavage rate” value came to 0.104 ± 0.014.

Regarding UAGUGACUCAGCUUCUCUGAGAGAUUAUGA, the “pre-steady-state target cleavage rate” value amounted to 0.00346 ± 0.0026.

UAGUGAGUCACCUUCUCUGACACAUUAACA: the “pre-steady-state target cleavage rate” value was found to be 0.0575 ± 0.0091.

As to UAGUGUGUCACCUUCUCUGAGAGAUUAACCA, the “pre-steady-state target cleavage rate” value was found to be 0.535 ± 0.041.

With UAGUGACACACCUUCUCUGAUAGAUUAACA, the “pre-steady-state target cleavage rate” value came out at 0.714 ± 0.054.

With AUCACUGUCACCUUCUGUGACAGAUUAACA, the “pre-steady-state target cleavage rate” value amounted to 0.0389 ± 0.0096.

Turning to UAGUCUGUCACCUUCUCUGACAGAUUAACA, the “pre-steady-state target cleavage rate” value worked out at 0.0465 ± 0.0095.

On to UAGUGACAGUCCUUCUGUGAGAGUUUAACA, for which the “pre-steady-state target cleavage rate” value was 0.00973 ± 0.0024.

Take UUCACUGUCACCUUCUCUCAGAGAUAUUGA: the “pre-steady-state target cleavage rate” value is 0.00752 ± 0.0041.

In the case of UACACUGACACCUUCUCUCAGAGAUUAACA, the “pre-steady-state target cleavage rate” value stood at 0.0777 ± 0.01.

For AUCACUGUCACCUUCUCUGACAGAUUAACA, the “pre-steady-state target cleavage rate” value worked out at 0.364 ± 0.035.

With UAGUCUGAGACCUUCUCUGAGAGAUAUUGA, the “pre-steady-state target cleavage rate” value was found to be 0.00315 ± 0.0026.

For UAGUCUGUCACCUACUCUGAGAGAAUAACA, the “pre-steady-state target cleavage rate” value was determined as 0.326 ± 0.051.

Take UAGACUGUCACCUUCUCUGAGAGAGUAACA: the “pre-steady-state target cleavage rate” value is 0.331 ± 0.032.

In the case of UUAACUGUCACCUUCUCUGAGAGAUUAACA, the “pre-steady-state target cleavage rate” value turned out to be 0.581 ± 0.022.

As for AUCACUCUCACCUUCUCUGAGAGAUUAAGA, the “pre-steady-state target cleavage rate” value came to 0.0592 ± 0.016.

For UAGUGAGACACCUUCUCUGAGAGAUUAUCA, the “pre-steady-state target cleavage rate” value turned out to be 0.24 ± 0.044.

Consider UUCACUGUCACGUUCUCUGUGAGAUUAACA, for which the “pre-steady-state target cleavage rate” value is 0.175 ± 0.011.

For the sequence UAGUCUGUCACCUAUCUCUGAGAGAUUAACA, the “pre-steady-state target cleavage rate” value turned out to be 0.469 ± 0.031.

For UAGUGAGUCACCUUCUCAGAGAGUUUAACA, the “pre-steady-state target cleavage rate” value turned out to be 0.266 ± 0.047.

As for UUCACUGUCACCAUCUCUGAGACAUUAACA, the “pre-steady-state target cleavage rate” value was 0.0714 ± 0.0062.

On to UACACUGUCACCUUGUCUGUGAGAUUAACA, for which the “pre-steady-state target cleavage rate” value stood at 0.113 ± 0.011.

As for AUCACUGUCACCUUCUCUGAGAGCAUUAACA, the “pre-steady-state target cleavage rate” value came to 0.478 ± 0.037.

Regarding UACACUGUCACCUUCUCUGAGACUAUAACA, the “pre-steady-state target cleavage rate” value was 0.0087 ± 0.0038.

For the sequence AUCACUGUACCUUCUCUGAGAGAUUAACA, the “pre-steady-state target cleavage rate” value came to 0.769 ± 0.051.

As to UUCACUGUCACCAUCUGUGAGAGAUUAACA, the “pre-steady-state target cleavage rate” value worked out at 0.321 ± 0.021.

UAGUGACUCAGCUUCUCUGAGAGAUAAACA: the “pre-steady-state target cleavage rate” value was 0.04 ± 0.0045.

Regarding UAGUGACUGACCUACUCUGAGAGAUUAACA, the “pre-steady-state target cleavage rate” value was determined as 0.0643 ± 0.0073.

With UAGUGACACACGUUCUCUGAGAGAUUAUGA, the “pre-steady-state target cleavage rate” value came to 0.00533 ± 0.002.
